Experimental data as given in paper PMC13543948, “SNX-BAR proteins 5 and 6 are required for NCOA7-AS antiviral activity against influenza A virus” (The Journal of Biological Chemistry, 2026).
No constants are given. Whether binding was seen depends on the method and setting. For part of these data: Binding seen in cells or lysates may run through a third protein. Some entries that bind do so weakly or less than the wild type. Sequences can lack the tags named with a protein.

Amino acid sequences for entries named in this document (tags omitted). A change or cut given only in a name is not applied to a line headed by its entry.
UniProt Q13596: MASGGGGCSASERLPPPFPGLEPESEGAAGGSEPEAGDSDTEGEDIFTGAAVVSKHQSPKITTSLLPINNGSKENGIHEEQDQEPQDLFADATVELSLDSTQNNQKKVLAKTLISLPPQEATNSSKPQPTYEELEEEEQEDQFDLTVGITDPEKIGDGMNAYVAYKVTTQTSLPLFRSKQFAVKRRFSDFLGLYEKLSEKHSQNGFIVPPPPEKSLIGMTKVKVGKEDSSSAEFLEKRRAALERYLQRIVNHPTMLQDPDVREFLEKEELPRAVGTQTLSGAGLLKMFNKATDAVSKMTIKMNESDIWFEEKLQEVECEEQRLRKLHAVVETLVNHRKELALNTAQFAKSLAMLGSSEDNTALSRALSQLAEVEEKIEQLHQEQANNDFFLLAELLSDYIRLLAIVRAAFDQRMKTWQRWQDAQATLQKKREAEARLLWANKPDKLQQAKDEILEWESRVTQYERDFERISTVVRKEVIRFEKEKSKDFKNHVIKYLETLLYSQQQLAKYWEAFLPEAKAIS

Experiments:
[1] = target: T1, FLAG-tagged NCOA7-AS-WT, expressed in U87-MG cells (human) (UniProt Q8NI08); assay: co-IP; U87-MG cells transduced with FLAG-tagged NCOA7-AS or E2-Crimson; FLAG immunoprecipitation; immunoblot of endogenous SNX proteins
T1 sequence: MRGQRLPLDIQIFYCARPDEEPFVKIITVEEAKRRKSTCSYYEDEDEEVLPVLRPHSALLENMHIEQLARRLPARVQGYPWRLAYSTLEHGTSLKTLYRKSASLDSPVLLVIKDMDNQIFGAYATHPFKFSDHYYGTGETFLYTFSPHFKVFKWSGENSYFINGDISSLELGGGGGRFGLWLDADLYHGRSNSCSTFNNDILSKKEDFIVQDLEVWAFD

[2] = target: T2, GST-tagged NCOA7-AS (NCOA7-AS-WT-GST) (human) (UniProt Q8NI08); assay: pull-down; GST-tagged proteins (14-35 μg) on glutathione agarose beads, 85 μg MBP-tagged protein, 2 h at 4 °C; 50 mM Tris-HCl pH 8, 600 mM NaCl, 5 mM β-mercaptoethanol, 10% glycerol; Western blot (GST, MBP); both purified
T2 sequence: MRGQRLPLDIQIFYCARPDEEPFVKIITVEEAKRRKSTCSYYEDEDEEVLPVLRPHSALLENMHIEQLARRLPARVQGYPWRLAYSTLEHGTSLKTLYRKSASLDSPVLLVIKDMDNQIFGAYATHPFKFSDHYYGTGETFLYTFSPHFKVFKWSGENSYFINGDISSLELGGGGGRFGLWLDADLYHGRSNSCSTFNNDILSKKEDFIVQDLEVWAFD

[3] = target: T3, GST-tagged NCOA7-AS N-terminal domain (NCOA7-AS-NTD-GST) (human) (UniProt Q8NI08); assay: as above
T3 sequence: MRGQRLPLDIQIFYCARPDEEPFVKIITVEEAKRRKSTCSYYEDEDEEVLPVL

[4] = target: T4, GST-tagged NCOA7-AS TLDc domain (NCOA7-AS-TLDc-GST) (human) (UniProt Q8NI08); assay: as above
T4 sequence: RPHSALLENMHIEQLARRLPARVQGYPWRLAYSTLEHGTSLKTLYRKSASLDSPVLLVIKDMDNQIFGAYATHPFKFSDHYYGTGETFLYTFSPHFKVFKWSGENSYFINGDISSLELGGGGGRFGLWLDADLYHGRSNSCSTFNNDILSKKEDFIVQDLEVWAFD

[5] = target: T5, GST-tagged NCOA7-AS-Y14F (human) (UniProt Q8NI08); assay: as above
T5 sequence: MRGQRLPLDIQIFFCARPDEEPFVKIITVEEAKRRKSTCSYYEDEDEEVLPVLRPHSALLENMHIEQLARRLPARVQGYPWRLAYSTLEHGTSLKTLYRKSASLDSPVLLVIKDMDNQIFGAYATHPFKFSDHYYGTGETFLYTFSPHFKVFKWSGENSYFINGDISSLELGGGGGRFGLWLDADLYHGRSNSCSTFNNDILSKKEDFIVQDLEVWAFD

“sorting nexin 1 (SNX1), endogenous in U87-MG cells (from UniProt Q13596 1-522)” was tested, and the binding [1] was “binds”.

In the case of “MBP-tagged PX domain of SNX1 (MBP-PX-SNX1) (from UniProt Q13596 143-272) (domain or fragment)”, the binding [2] is reported as “no binding”.

B1: MBP-tagged PX domain of SNX6 (MBP-PX-SNX6) (domain or fragment, UniProt Q9UNH7 26-173)
chain: LQSDAALQVDISDALSERDKVKFTVHTKSSLPNFKQNEFSVVRQHEEFIWLHDSFVENEDYAGYIIPPAPPRPDFDASREKLQKLGEGEGSMTKEEFTKMKQELEAEYLAIFKKTVAMHEVFLCRVAAHPILRRDLNFHVFLEYNQDL
B1 was tested, and the binding [3] was “binds”, the binding [4] was “no binding” and the binding [5] was “binds”. For the same molecule, the binding [2] was “binds”.
